Results from PubChem BioAssay AID1346428 (National Center for Advancing Translational Sciences (NCATS), 2018).
Out of some 48,000 compounds screened, about 1,200 (2.5%) were called active. Inconclusive results (about 2%) are left out.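 Rule for the calls: active = activation of at least 60% and not above a set upper limit (about 1 call in 100 departs from these limits); inconclusive = activation of 40% to 60%, or above that upper limit; inactive = activation under 40%.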 Some of the results follow.

Target: Probable G-protein coupled receptor 32 (Homo sapiens) (UniProt O75388)
Sequence of UniProt O75388 (O75388 whole entry, looked up): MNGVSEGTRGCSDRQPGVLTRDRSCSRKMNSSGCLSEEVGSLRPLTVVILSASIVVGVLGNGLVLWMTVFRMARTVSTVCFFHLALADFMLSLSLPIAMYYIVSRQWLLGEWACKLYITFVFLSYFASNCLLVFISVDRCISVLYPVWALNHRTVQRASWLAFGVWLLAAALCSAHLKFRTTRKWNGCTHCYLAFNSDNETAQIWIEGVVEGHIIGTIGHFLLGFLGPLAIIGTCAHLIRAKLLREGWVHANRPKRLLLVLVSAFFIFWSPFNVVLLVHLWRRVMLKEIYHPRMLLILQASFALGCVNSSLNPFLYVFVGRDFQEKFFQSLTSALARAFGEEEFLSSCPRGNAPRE
Test: qHTS for Agonists of Human Resolvin D1 Receptor DRV1; note: 0% is about no effect
Conditions: CHO-K1 GPR32 beta-arrestin PathHunter luminescence, 90 min; at 76.9 µM; hits give high values; zero percent set by DMSO-only wells
Summary of the method: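 PathHunter enzyme-fragment complementation, CHO-K1 GPR32 stable line; 2,500 cells/well, overnight attach; cpd 90 min 37 °C 5% CO2; detection reagent 1 h RT; chemiluminescence. DMSO = EC0.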

Structure (SMILES) | activation
CCCN1CCc2nc(N3CCN(CC)CC3)ncc2C1 | inactive: -13.2%
CCOc1cccc(C(=O)Nc2c(C(=O)c3ccc(OC)cc3)oc3ccccc23)c1 | inactive: -10.3%
COc1ccccc1CNc1cc(-c2ccccc2)nc2nncn12 | inactive: -25.9%
CS(=O)(=O)NCC(c1ccco1)N1CCN(c2ccccc2)CC1 (stereo not given) | inactive: -24.9%
CC(=O)c1ccc(C(=O)N(CCCN(C)C)c2nc3c(C)c(C)ccc3s2)cc1 | inactive: 7.35%
COc1ccc(N2Cc3cccc(C(=O)Nc4ccc(C(C)C)cc4)c3C2=O)cc1 | inactive: -7.56%
CCCCOC(=O)c1ccc(NC(=O)c2cc(-c3ccccc3)on2)cc1 | inactive: -0.556%
O=C(CN(c1ccc(Cl)c(C(F)(F)F)c1)S(=O)(=O)c1ccccc1)N1CCc2ccccc2C1 | inactive: -5.36%
C=CCc1ccc(O)c(OC)c1 | inactive: 19.8%
Cc1nc2ccn(Cc3cccs3)c(=O)c2cc1C(=O)N1CCN(c2ccc(F)cc2)CC1 | inactive: -18.7%
Cc1ccc(NC(=O)c2sc(-n3nc(C)c(CCC(C)C)c3C)nc2C)cc1C | inactive: -11.1%
CCc1ccc(NC(=O)Cn2c(=O)c(-c3ccccc3NC(C)=O)nc3ccccc32)cc1 | inactive: -17.2%
OC[C@@H](O)[C@@H](O)[C@H](O)[C@H](O)CO | inactive: -15.5%
O=C(NCc1ccc(F)cc1)c1ccc(CS(=O)(=O)c2ccc(Cl)cc2)o1 | inactive: 2.43%
Oc1c(C(c2ccc(Cl)cc2Cl)N2CCOCC2)sc2nc(-c3ccco3)nn12 (stereo not given) | active: 89.9%
CC(=O)N[C@@H](Cc1ccc(O)cc1)C(=O)O | inactive: 2.39%
COc1cccc(CNC(=O)CSc2nc(=O)[nH]c3c2CCCC3)c1 | inactive: -1.04%
CCn1ccc2cc(S(=O)(=O)N3CCCN(C(=O)Nc4ccccc4C(F)(F)F)CC3)ccc21 | inactive: -1.48%
CCOc1ccc(S(=O)(=O)N(CC(=O)NCCSCc2ccc(C)cc2)c2ccccc2)cc1 | inactive: 12.9%
Cc1ccc2c(=O)cc(C(=O)Nc3nnc(CC(C)C)s3)oc2c1C | inactive: 0.246%
Cc1cccc(Cn2c(=O)n(CCC(=O)NCc3ccc4c(c3)OCO4)c(=O)c3sccc32)c1 | inactive: -29.4%
CC1CCN(S(=O)(=O)c2ccc(N3CCCCS3(=O)=O)cc2)CC1 | inactive: 10.5%
COc1ccc(CCNC(=O)Cn2cc(S(=O)(=O)Cc3ccccc3F)c3ccccc32)cc1OC | inactive: 3.63%
O=C(CC1N=C2c3ccccc3N=C(SCC(=O)Nc3cccc(Cl)c3)N2C1=O)NCc1cccs1 (stereo not given) | inactive: -28%
Cc1ccc(C)n1-c1nnc(N2CCC(C(=O)Nc3ccccc3Br)CC2)s1 | inactive: -11.3%
CCc1ccc(NC(=O)c2ccc3c(c2)N(Cc2ccc(C)cc2)CCS3)cc1 | inactive: -13.4%
CCn1c(SCC(=O)Nc2ccc(C)cc2Br)nnc1-c1nonc1NC(C)=O | inactive: -9.89%
COc1ccc2c(c1)Cc1sc(NC(=O)c3ccccc3Br)nc1-2 | inactive: -21.9%

Structure (SMILES) | activation
COc1ccccc1C(=O)NCc1ccc2c(c1)CCN2C(=O)c1cccc(C)c1 | inactive: -9.45%
COc1ccc(N2CCN(C(=O)C3CCN(S(=O)(=O)c4cnc[nH]4)CC3)CC2)cc1 | inactive: -4.74%
CCOC(=O)Cn1c(=O)oc2cc(S(=O)(=O)Nc3cc(OC)cc(OC)c3)ccc21 | inactive: 11.4%
COC(=O)C1=C(C)NC(COC(N)=O)=C(C(=O)OC(C)C)C1c1cccc(Cl)c1Cl (stereo not given) | active: 86.1%
CCc1ccccc1Nc1nn2c(=O)c3ccc(C(=O)NCc4cccs4)cc3nc2s1 | inactive: -34.5%
CCn1c(C)c(C)c2cc(C(=O)NCCc3cc(OC)c(OC)c(OC)c3)ccc21 | inactive: -4.71%
CCc1ccc(S(=O)(=O)c2nnn3c2nc(NCc2cccs2)c2sccc23)cc1 | inactive: -13%
CN1CCN(C(c2ccc(F)cc2)c2sc3nc(-c4ccco4)nn3c2O)CC1 (stereo not given) | inactive: 2.89%
Cc1cccc(C(=O)Nc2cccc(C(=O)OCc3cc(=O)n4c5c(sc4n3)CCCC5)c2)c1 | inactive: -29.5%
COc1ccc(-c2c3c(=O)n(C)c(=O)n(C)c3c3c(-c4ccccc4)nc4ccccc4n23)cc1 | inactive: -11%
CC1(C)CCC=[N+]1[O-] | inactive: 0.0116%
O=C(Nc1ccccc1F)C(Cc1ccccc1)n1cccc1 (stereo not given) | inactive: -21.1%
O=C(Nc1ccc2nc(SCC(=O)N3CCOCC3)sc2c1)c1ccc(F)cc1 | inactive: 2.63%
CNC(=O)c1cc2c(n(-c3ccc(C)cc3)c1=O)CC(C)(C)CC2=O | inactive: 12.4%
Cc1cc(C)c(Nc2nn3c(=O)c4cc5c(cc4nc3s2)OCO5)c(C)c1 | inactive: 6.17%
COc1cc(OC)cc(-c2nc3nc(C)c(CCC(=O)Nc4ccc(Cl)cc4)c(C)n3n2)c1 | inactive: 7.13%
CCOC(=O)c1cnc2c(C)c(Cl)ccc2c1Nc1ccc(C)cc1C | inactive: 35.8%
CCN(C(=O)c1cc2c(Cl)nc3ccccc3c2s1)c1cccc(Cl)c1 | inactive: 0.844%
CC1=C(C(=O)Nc2cccnc2)C(c2ccc(F)cc2)n2nc(SCc3ccccc3F)nc2N1 (stereo not given) | inactive: 4.49%
CN1c2cc(Cl)ccc2-c2nc(SCC(=O)Nc3ccc(F)cc3F)ncc2S1(=O)=O | inactive: -0.774%
COc1ccc(OC2CCN(S(=O)(=O)c3ccc(OC)cc3)CC2)cc1 | inactive: -14.1%
COc1cc(NC(=O)CN(C)S(=O)(=O)c2ccc3[nH]c4c(c3c2)CCCC4)cc(OC)c1OC | active: 105%
O=C(NC1CCCC1)c1ccc(CSc2nc3ccncc3n2Cc2ccccc2F)cc1 | inactive: -16%
Cc1cc(NC(=O)CSc2nc3c([nH]c4ccccc43)c(=O)n2-c2cccc(Cl)c2)no1 | inactive: -2.7%
CCn1cc(C(=O)O)c(=O)c2cc(F)c(N3CCNCC3)nc21 | inactive: 3.22%
Clc1ccc(-c2noc3ncnc(NCCCN4CCN(c5ccccc5)CC4)c23)cc1 | inactive: 39.9%
COc1ccccc1C(=O)NCc1ccc2c(c1)CCN2C(=O)c1ccncc1 | inactive: -20.4%
